# In paper PMC9574860, “Chemical Toolkit for PARK7: Potent, Selective, and High-Throughput” (Journal of Medicinal Chemistry, 2022):
# Hit rate of the full screen: of about 7,900 compounds, about 400 (5.1%) showed an effect of 50% or more. The list shows a part of the results.
# Molecular target: Parkinson's disease protein 7 (PARK7/DJ1) (human, UniProt Q99497)
# Assay: primary screen, percent inhibition; read as competition with a fluorescent probe by fluorescence polarization; higher = more effect of the substance
# Details: 100 µM
# Summary of the method: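 Fluorescence-polarization probe displacement (JYQ-107, 20 nM final, 2 h) after 2 h preincubation of PARK7 (0.2 μM final) with each fragment at 100 μM final. Read-out ex/em 480/520 nm; remaining activity derived from FP signal loss relative to reference controls.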
# Parkinson's disease protein 7 (PARK7/DJ1), sequence (Q99497 whole entry, looked up): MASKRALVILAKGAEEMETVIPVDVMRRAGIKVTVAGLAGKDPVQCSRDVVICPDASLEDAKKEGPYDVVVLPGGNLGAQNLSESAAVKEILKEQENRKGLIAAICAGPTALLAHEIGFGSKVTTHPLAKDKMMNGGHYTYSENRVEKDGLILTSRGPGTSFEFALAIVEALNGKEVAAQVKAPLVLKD
row,SMILES,Inhibition %
1,C=CC(=O)N1CCC(c2c(C(=O)O)nnn2C)CC1,5.22%
2,OB(O)c1ccc(-n2nccc2C2CC2)cc1,-0.314%
3,COc1ccc(C)cc1S(=O)(=O)n1ccnc1C,6.27%
4,C=CC(=O)NC1CC(NC(=O)C2CCC2)C1 (stereo not drawn),7.98%
5,Cn1ncc(CNC(=O)OC(C)(C)C)c1B1OC(C)(C)C(C)(C)O1,7.89%
6,O=c1[nH]nc(C2CCCN(Cc3cccc(F)c3F)C2)o1 (stereo not drawn),-0.557%
7,ClCC1COc2ccccc2O1 (stereo not drawn),4.9%
8,CC1(C)OB(c2ccc(OC(F)F)cc2F)OC1(C)C,3.12%
9,N#CC(=Cc1ccccc1)C(=O)Nc1nncs1,3.58%
10,Cc1cc(C(=O)CCl)c(C)n1C(C)C,96.9%
11,N#Cc1ncn(CCC(=O)Nc2ccccc2F)n1,5.17%
12,C=CC(=O)NCC1CCSC1 (stereo not drawn),5.45%
13,C=CC(=O)N1CCN(C(=O)c2cc(C)no2)CC1,5.39%
14,C=CC(=O)NCc1ncc(C)o1,7.34%
15,C=CC(=O)NC1CCOCC1,3.08%
16,Cc1cc(C)c(C(N)=O)c(S)n1,11%
17,C=CC(=O)Nc1ncccn1,5.18%
18,N#Cc1c(F)cccc1N1CCCC(C2OCCO2)C1 (stereo not drawn),12%
19,Cl.Cl.N#Cc1ccc2c(n1)CCNCC2,16.4%
20,CCC(=O)Nc1ccc(C(=O)CCl)cc1,4.09%
21,N#CC(=Cc1ccc(-c2nc3ccccc3s2)o1)C(N)=O,3.97%
22,N#Cc1ncn(CC(=O)N2CCSc3ccccc32)n1,2.82%
23,O=C(CCl)NCCC1CCCCC1,42.5%
24,C=CC(=O)NC1CCc2[nH]ncc2C1 (stereo not drawn),2.61%
25,C=CC(=O)N(C)Cc1conc1CC,2.19%
26,O=C(O)c1cc(S(=O)(=O)F)ccc1Cl,7.95%

row,SMILES,Inhibition %
1,C=CC(=O)NCc1nc(C(=O)O)c(C)s1,5.67%
2,CN(C)c1oc(-c2ccccc2)nc1C#N,3.45%
3,O=C(CCl)NCC(=O)Nc1ccccc1Br,-1.05%
4,Cl.O=C1OCCC12CCNCC2,2.48%
5,Cn1cc(C(=O)O)c(CCCCl)n1,6.81%
6,CCN(Cc1ccc2c(c1)OCO2)C(=O)CCl,9.14%
7,COc1ccc(C(C)(C)C)cc1S(=O)(=O)n1cccn1,5.01%
8,COc1cccc(OC)c1OCC1CO1 (stereo not drawn),9.03%
9,Cc1cc(C(=O)CCl)c(C)n1-c1ccc(F)cn1,5.68%
10,C=CC(=O)NC1CCCC1Cc1ccccn1 (stereo not drawn),5.16%
11,Cc1ccc(-c2csc(NC(=O)CCl)n2)cc1C,0.444%
12,C=CC(=O)N1CCN(C2CC2)C(=O)C1,11.1%
13,O=S(=O)(c1ccc(Cl)c(Cl)c1)n1cccn1,-1.82%
14,CN(CC(=O)Nc1ccccc1Cl)C(=O)CCl,42.3%
15,COc1c(C2CCCN2C2CC(C)OC2=O)c(C)nn1C (stereo not drawn),-0.963%
16,NC(=O)c1csc(C(=O)CCl)c1,101%
17,O=C(CCl)N1c2ccccc2Sc2ccccc21,1.08%
18,CCOCCCn1c(S)nc2ccccc2c1=O,5.07%
19,O=C(CCl)NC(=O)NCc1ccco1,9.61%
20,Cc1noc(C)c1Cn1cnc(C#N)n1,6.19%
21,C=CC(=O)NCCN1C(=O)CNC1=O,12.9%
22,CC(C(=O)O)n1c(S)nc2ccccc2c1=O (stereo not drawn),7.43%
23,Cc1ccc(-c2nc(SC3CCOC3=O)n[nH]2)cc1 (stereo not drawn),3.13%
24,Clc1ccc(OCC2CO2)cc1 (stereo not drawn),2.18%
25,Cc1ccc(-c2nnc(SC3CCOC3=O)n2C)cc1 (stereo not drawn),8.44%
26,C=CC(=O)N1CCCSc2ccccc21,5.67%

row,SMILES,Inhibition %
1,CN(C)S(=O)(=O)c1ccc(S)nc1,31.2%
2,Cl.O=C(CCl)c1ccncc1,95.3%
3,C=CC(=O)NCc1ccnc(N2CCOCC2)c1,13.5%
4,C=CC(=O)N1CC(c2nc(C)no2)C1,9.14%
5,O=C(CCl)N(C1=CCCCC1)C1CC1,28.7%
6,C=CC(=O)N1CCC(N)CC1.Cl,5.59%
7,CC(NC(=O)NC(=O)CCl)C1CC2CCC1C2 (stereo not drawn),9.23%
8,O=C(CCl)Nc1cccc(I)c1,41%
9,O=C1OCCC1N1CCOC(c2ccc(Cl)cc2)C1 (stereo not drawn),7.62%
10,O=S(=O)(c1cccnc1)N1CCC(B(O)O)C1 (stereo not drawn),-1.81%
11,N#CC(=Cc1ccccc1OCC1CCCO1)C(N)=O (stereo not drawn),2.51%
12,COc1cc(S(=O)(=O)n2nc(C)cc2C)ccc1Cl,11.5%
13,FC(F)(F)c1ccc(S)nn1,25.5%
14,Cn1nccc1NS(=O)(=O)c1cccc(S(=O)(=O)F)c1,89.5%
15,NC(=O)C=Cc1cccnc1,11.7%
16,O=C1NC(c2ccccc2)C12CCOCC2 (stereo not drawn),2.64%
17,C#CC(=O)Nc1ccc(C(=O)O)cc1,1.94%
18,C=CC(=O)N(C)CC1(C)COC1,18%
19,C=CC(=O)NCC1(C)CC(F)(F)C1,5.99%
20,C=CC(=O)Nc1cccc(OC(F)F)c1,4.3%
21,C=CC(=O)N1CC(O)(c2cccc3ccccc23)C1,-1.66%
22,O=C(CCl)N1CCCC1c1ccc2c(c1)OCCO2 (stereo not drawn),11.4%
23,Cc1nc(Cn2c(-c3ccccn3)noc2=O)cs1,-1.76%
24,C=CC(=O)N1CCc2c(ncn2-c2ccccc2)C1,2.64%
25,CC1(C)OB(c2ccc3[nH]c(C(F)(F)F)cc3c2)OC1(C)C,0.184%
26,CCCOc1cc(C)c(Cl)cc1S(=O)(=O)n1ccnc1,9.05%

row,SMILES,Inhibition %
1,C=CC(=O)Nc1ccc(F)c(N2CCOCC2)c1,3.72%
2,O=C(CCl)NCc1cccc(N2CCCC2=O)c1,24.5%
3,C=CC(=O)N1CCN(C(=O)c2ccccc2OC)CC1,6.39%
4,COc1ccc(Sc2nccnc2C#N)cc1,4.71%
5,CCn1c(S)nc2ccccc2c1=O,7.71%
6,N#Cc1n[nH]c2ccc(Cl)cc12,11%
7,C=CC(=O)NC1C2Cc3cc(F)ccc3C21 (stereo not drawn),11.5%
8,N#Cc1ncccc1S(N)(=O)=O,6.94%
9,Cc1nc(C(C#N)=Cc2csnn2)sc1C,3.38%
10,C=CC(=O)N1Cc2ccc(OC)cc2C1,4.97%
11,C=CC(=O)Nc1ccc(Cl)cc1,5.59%
12,CN(C)C(=O)Oc1ccc2c(c1)OCO2,-4.08%
13,Cn1nccc1B1OC(C)(C)C(C)(C)O1,20.6%
14,CC(C)(C)[C@H]1OCC[C@@H]1CNC(=O)c1c[nH]c(C#N)c1,3.68%
15,C=CC(=O)N1CCN(CCc2ccc(F)cc2)CC1,8.07%
16,N#Cc1ncn(CC(=O)c2ccc3c(c2)CCCC3)n1,9.17%
17,O=C(CCl)Nc1cccc2ccccc12,18.9%
18,C=CC(=O)N1CCOCC1c1nnc(C)o1 (stereo not drawn),12.4%
19,Cc1nnc(S)c(C(N)=O)c1C,21.1%
20,Cl.O=C(CCl)N1CCN(Cc2ccccc2)CC1,7.64%
21,O=C(CS)Nc1ccc(F)cc1,5.25%
22,C=CC(=O)N1CCSCC1c1cccs1 (stereo not drawn),10.1%
23,Cc1cccc(OCC2CO2)c1 (stereo not drawn),1.24%
24,N#Cc1ncn(CC(=O)Nc2ccccc2Cl)n1,9.82%
25,N#CC(=Cc1ccc(O)cc1)c1ccccn1,10.2%
26,Cc1nc(NC(=O)CN2CCSC2=O)sc1C,10.6%

row,SMILES,Inhibition %
1,CC1CC(Sc2nnc(-c3ccccc3)n2C)C(=O)O1 (stereo not drawn),4.4%
2,O=C(CCl)c1ccc(Cl)cc1,75.6%
3,C=CC(=O)N1CCCC(n2cc(C(=O)O)nn2)C1 (stereo not drawn),12.4%
4,O=C(CCl)NCCc1ccc2c(c1)OCCO2,47.9%
5,C=CC(=O)NCC1(CC)COC1,7.79%
6,O=C(CCCl)NC1CCCC1,8.22%
7,Cc1cc(C(=O)Nc2cccc(S(=O)(=O)F)c2)nn1C(C)(C)C,32.8%
8,C=CC(=O)NC1CCCc2cn(C3CCCC3)nc21 (stereo not drawn),5.07%
9,O=C(CN1CCSC1=O)Nc1cccc(F)c1,6.11%
10,Cc1noc(C)c1S(=O)(=O)Oc1cccc2cccnc12,0.67%
11,CCOc1cc(S(=O)(=O)n2ccc(C)n2)ccc1Cl,2.71%
12,N#Cc1c(F)cccc1OS(=O)(=O)c1c[nH]cn1,4.42%
13,COc1ccc(C(=O)CCl)c(OC)c1,41.1%
14,COC(=O)c1ccccc1NC(=O)CCl,8.41%
15,CC(=O)N1CCN(C(=O)C=Cc2csc(C)n2)CC1,16%
16,CN(C)S(=O)(=O)c1ccc(NC(=O)CCl)cc1,84.2%
17,Fc1cccc(F)c1C1CO1 (stereo not drawn),7.72%
18,Cc1nn(C)c(C)c1C=CC(=O)N1CCc2sccc2C1,11.3%
19,Cc1ccc(C#N)c(S)n1,4.79%
20,CC(c1ccccc1)N(C)C(=O)CCl (stereo not drawn),98.5%
21,N#Cc1ccnc2ccccc12,6.17%
22,Cc1ccc(S(=O)(=O)N2CCCCC2C2OCCO2)cc1 (stereo not drawn),3.92%
23,CC(C)(C)Nc1ccc(C#N)nc1,11.5%
24,COc1cccc(COCC2CO2)c1 (stereo not drawn),5.75%
25,CC(=O)N1c2ccc(B3OC(C)(C)C(C)(C)O3)cc2CC1(C)C,5.32%
